This is one part of the list. These are further read-outs of the screen, such as a control signal, another cell line or another target. No call is given for them. Peptide text beside a SMILES is read from it.
Key:
Test in all cases: Primary Screen for Target Class Profiling of Small Molecule Inhibitors of Methyltransferases
[1] = target: Glycine N-methyltransferase (Homo sapiens) (UniProt Q14749); details: purified enzyme, MTase-Glo SAH luminescence; measured here: GNMT inhibition; at 40 µM; stronger effect = lower value
Method in brief: (§1)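 Each enzyme was reacted with SAM and its substrate, with compounds tested once at 40 uM; SAH formed was read by MTase-Glo luminescence.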

[2] = target: Guanidinoacetate N-methyltransferase (Homo sapiens) (UniProt Q14353); details: purified enzyme, MTase-Glo SAH luminescence; measured here: GAMT inhibition; at 40 µM; stronger effect = lower value
Method in brief: as §1

[3] = target: Histamine N-methyltransferase (Homo sapiens) (UniProt P50135); details: purified enzyme, MTase-Glo SAH luminescence; measured here: HNMT inhibition; at 40 µM; stronger effect = lower value
Method in brief: as §1

[4] = target: Nicotinamide N-methyltransferase (Homo sapiens) (UniProt P40261); details: purified enzyme, MTase-Glo SAH luminescence; measured here: NNMT inhibition; at 40 µM; stronger effect = lower value
Method in brief: as §1

[5] = target: Phenylethanolamine N-methyltransferase (Homo sapiens) (UniProt P11086); details: purified enzyme, MTase-Glo SAH luminescence; measured here: PNMT inhibition; at 40 µM; stronger effect = lower value
Method in brief: as §1
% is set by controls: 0 for no effect and ±100 for the full control effect.

Compound | activity change, negative = inhibition [1] | activity change, negative = inhibition [2] | activity change, negative = inhibition [3] | activity change, negative = inhibition [4] | activity change, negative = inhibition [5]
COc1cccc(C2c3cccn3-c3sc4c(c3CN2C(=O)Nc2ccccc2OC)CCCC4)c1 (stereo not given) | 0.552% | 0% | 7.53% | -3.79% | 4.21%
C/C(=C/CO)CC[C@@H]1[C@@](C)(O)CCC2C(C)(C)CCC[C@]21C (stereo not given in full) | -3.17% | 10.4% | 9.12% | -6.74% | 3.32%
CCCn1c(=O)c2ccc(C(=O)NCC(C)C)cc2n2c(SCC(=O)Nc3ccc(F)cc3)nnc12 | 1.89% | 0% | 1.5% | -3.68% | 1.25%
CN1CCN(C(=O)C2CCCCC(=O)N2)CC1 (stereo not given) | 0.356% | 0.511% | 0.199% | 3.93% | -0.419%
O=C(NCc1ccc(F)cc1)c1nc2sccn2c1Br | -3.42% | -4.52% | -0.868% | -5.66% | -2.23%
COc1ccc(S(=O)(=O)N2CCC(OC3CCN(C)CC3)CC2)cc1 | 2.07% | 0% | 7.63% | 10.3% | 6.58%
O=C(COc1ccccc1)NCC1CCCCC(=O)N1 (stereo not given) | -5.75% | -7.26% | -1.62% | -8.79% | -1.11%
C=C(C)[C@@H]1CC[C@]2(C(=O)O)CC[C@]3(C(=O)O)[C@H](CCC4[C@@]5(C)CCC(=O)C(C)(C)C5CC[C@]43C)C12 (stereo not given in full) | -5.31% | -7.98% | -0.84% | -17.6% | -16.1%
CC1(C(=O)NC2CCCCCCC2)Cn2c(ccc2-c2ccco2)C(=O)N1Cc1cccnc1 (stereo not given) | -4.14% | 1.78% | -1.62% | -4.77% | -5.31%
CCOC(=O)c1cc2n(n1)CC(C)(C(=O)NC1CCC(C)CC1)N(Cc1cccc(C)c1)C2=O (stereo not given) | 3.7% | 5.69% | 2.04% | -11.3% | 2.29%
CCOCCCNC(=O)c1cc2n(n1)CC(C)(C(=O)NCCC(C)C)N(C)C2=O (stereo not given) | -1.68% | 3.51% | 1.14% | -3.4% | 0.63%
COc1ccc(CN2Cc3[nH]cnc3C[C@H]2C(=O)N2CCC(Cc3ccccc3)CC2)cc1 | -11.1% | -12.5% | -11% | -21.7% | -16.9%
CC(=O)OC[C@]12[C@H](OC(C)=O)[C@H](OC(=O)c3ccccc3)[C@@H]3[C@@H](OC(C)=O)[C@]1(OC3(C)C)[C@H](C)C[C@H](OC(=O)c1ccccc1)[C@@H]2OC(=O)c1ccccc1 | 0% | -15.3% | 11% | -20.7% | -5.35%
COc1ccc(C)c2sc(NC(=O)c3ccncc3)nc12 | -6.53% | -3.9% | 9.13% | -17.7% | -2.89%
CC(C)=CCC/C(C)=C/CC/C(C)=C/COC1OC(COC2OCC(OC3OCC(O)C(O)C3O)C(O)C2O)C(O)C(OC2OC(C)C(OC3OC(C)C(OC4OCC(OC5OC(C)C(O)C(O)C5O)C(O)C4O)C(O)C3O)C(O)C2O)C1O (stereo not given) | -17.2% | 0.337% | -4.68% | -11.5% | 3.11%
Cc1ccc(C)c(NC(=O)N2CCC(n3cnnc3C3CC3)C2)c1 (stereo not given) | -1.82% | 0.364% | 1.58% | 1.22% | 15.6%
CC1=CC2/C=C(\C)CCC(O)C(=O)C(O)CC(=O)C23C(=O)NC(CC(C)C)C3C1C (stereo not given) | -1.77% | 0.117% | 11.7% | -14.7% | -9.18%
CC1CCCC(NC(=O)C2(C)Cn3c(ccc3-c3ccco3)C(=O)N2Cc2ccc(F)cc2)C1C (stereo not given) | -0.164% | 0% | 3.75% | -5.07% | 1.7%
COc1cccc(CN2C(=O)c3cc4oc(C)cc4n3CC2(C)C(=O)NC2CCCCCC2)c1 (stereo not given) | -7.52% | 2.42% | -6.82% | -12.2% | -9.7%
O=C(O)c1ccc(S(=O)(=O)N(Cc2ccc(OC(F)(F)F)cc2)c2ncc(C(F)(F)F)cc2Cl)cc1 | -2.45% | 15.1% | 10.3% | -16.4% | 3.18%

Compound | activity change, negative = inhibition [1] | activity change, negative = inhibition [2] | activity change, negative = inhibition [3] | activity change, negative = inhibition [4] | activity change, negative = inhibition [5]
COc1ccccc1CNC(=O)c1cc2n(n1)CC(C)(C(=O)NCc1ccc(F)cc1)N(C)C2=O (stereo not given) | -0.004% | 0.935% | -0.881% | -1.27% | 0.377%
CCc1cc2c(cc3n2CC(C)(C(=O)NC2CCCCCC2)N(Cc2ccc(C)cc2)C3=O)s1 (stereo not given) | 2.96% | 2% | 7.85% | 2.23% | 1.97%
COC(=O)N(C)Cc1cccc(N2CCN(S(=O)(=O)c3cccc4ccccc34)CC2)c1F | -0.697% | 0.992% | 2.19% | 1.34% | -0.928%
Cc1ccc(NC(=O)Cn2nc3n(C)c(=O)c4ccc(C(=O)NC5CCCC5)cc4n3c2=O)c(Cl)c1 | 1.16% | 0% | 5.63% | 2.62% | 2.57%
O=C(N[C@H]1C[C@@H](CO)N(CC2CCCCC2)C1)c1cccnc1 | -7.32% | -7.68% | -7.23% | -9.68% | -8.41%
CC1(C)SCCN(S(=O)(=O)c2ccc(Oc3ccncc3)cc2)[C@H]1C(=O)NO | 4.27% | -3.85% | 7.27% | -11.3% | 3.16%
CN(C)C[C@H]1O[C@H](Cc2cc(CN(C)Cc3ccccc3)on2)CC[C@@H]1O | 0.03% | 2.89% | -2.58% | -2.03% | 12.7%
CCOc1ccc(N(CC)C(=O)c2ccc3c(c2)N(S(C)(=O)=O)CC3)cc1 | -2.9% | -0.291% | -3.83% | -3.64% | 1.14%
COCCN(Cc1nccs1)Cc1cn[nH]c1-c1ccc(F)cc1 | -11.6% | 2.25% | 0.892% | -4.64% | -2.58%
COc1ccc2c(C)c(C(=O)N3CCCCC3c3cc(C)on3)oc2c1 (stereo not given) | -5.2% | -1.24% | 1.06% | -8.94% | -3.91%
CCCNC(=O)N1Cc2c(sc3c2CCCC3)-n2cccc2C1c1cccs1 (stereo not given) | -9.35% | -2.2% | -0.574% | -14.6% | -1.32%
CC(=O)/C=C/C1(O)C(C)=CC(=O)CC1(C)C (stereo not given) | -0.597% | 3.6% | 2.92% | -9.04% | 5.59%
CC(=O)NC(Cc1ccccc1)C(=O)NC(C(=O)O)C(C)C (stereo not drawn) (Ac-Phe-Val-OH; configuration not given here) | -2.88% | -5.33% | 7.59% | -17.5% | -7.64%
Cc1cc(CN)cc(C)c1NC(=O)c1ccc(-c2cc(Cl)ccc2Cl)o1 | -16.9% | -0.389% | -43.9% | -21.7% | -10.3%
O=C(c1ccc(Br)o1)N1C[C@@H](CO)[C@H](c2ccncc2)C1 | -3.95% | -2.17% | 2.79% | -4.12% | -2.5%
COc1ccc2cc3n(c2c1)CC(C)(C(=O)NC1CCCCC1)N(C(C)c1ccccc1)C3=O (stereo not given) | 1.77% | 0% | 2.11% | -4.22% | -4.93%
[N-]=[N+]=Nc1ccc(C(=O)CSC[C@H](NC(=O)CC[C@H](N)C(=O)O)C(=O)NCC(=O)O)cc1 | -12.1% | 10.7% | 5.67% | -11.8% | 1.42%
CC1(C(=O)NC2CCCCC2)Cn2c(nc3ccccc32)C(=O)N1Cc1cccs1 (stereo not given) | -3.68% | 1.84% | 2.19% | -4.09% | -1.85%
Cc1ccc(CN2C(=O)c3ccc(-c4ccco4)n3CC2(C)C(=O)NC2CCCCC2)o1 (stereo not given) | -4.46% | 0.062% | 6.54% | -7.11% | 1.76%
CCOC(=O)N1CCC(NC)CC1 | -6.52% | -7.27% | -3.88% | -9.04% | -13%

Compound | activity change, negative = inhibition [1] | activity change, negative = inhibition [2] | activity change, negative = inhibition [3] | activity change, negative = inhibition [4] | activity change, negative = inhibition [5]
O[C@H]1[C@H](NCc2ccco2)[C@H]2CO[C@H](O2)[C@@H]1N1CCC(Cc2ccccc2)CC1 | -1.09% | -1.24% | -2.21% | -1.74% | -1.28%
CCn1c(=O)n(CC)c2cc(S(=O)(=O)N3CCN(c4ccccc4)CC3)ccc21 | 14.7% | 3.67% | 13.2% | 8.23% | 9.97%
COc1cccc(C(=O)N2CCC(C(NC(=O)CC(C)C)C(=O)NCC(C)C)CC2)c1 (stereo not given) | -4.18% | -0.693% | 0.791% | 0.883% | 12.3%
CC1(C(=O)NC2CCCCCC2)Cn2nc(-c3ccco3)cc2C(=O)N1CCc1ccc(Cl)cc1 (stereo not given) | -14.4% | 4.22% | -7.65% | -12.8% | -5.42%
c1csc(CN2CCC(Oc3ccccc3-c3nc(-c4cnccn4)no3)C2)c1 (stereo not given) | -15.5% | -4.17% | -24.1% | -26.6% | -7.43%
Cc1ccc(Cn2c(=O)c3ccccc3n3c(CCC(=O)NCCN4CCOCC4)nnc23)cc1 | -11% | 0.989% | -7.94% | 4.5% | -8.17%
CCN1CCN(c2cc(-c3ccc(F)cc3)c3c(n2)CCCCCC3)CC1 | 2.71% | 10.4% | 12.5% | -18.6% | 4.5%
CC1=CC(=O)C2C(C)(C)CCC[C@]2(C)[C@H]1CC[C@H](C)CC(=O)O (stereo not given in full) | -1.25% | -1.61% | 9.87% | -17.3% | 5.28%
Cc1ccc(-c2cc(N3CCCN(C(=O)c4ccccc4F)CC3)n[nH]2)cc1C | -7.31% | -5.23% | -5.11% | -12.6% | -3.98%
COc1ccccc1CNC(=O)Cn1ccc2cc(S(=O)(=O)N3CCCC3)ccc21 | -3.31% | -3.17% | -6.13% | -8.05% | -5.22%
c1ccc(Cn2c(-c3ccc(OCC(C4CCNCC4)n4c(-c5ccccc5)nc5ccccc54)cc3)nc3ccccc32)cc1 (stereo not given) | -26.6% | -0.499% | -52.1% | -82% | -3.88%
COc1ccccc1CN1C(=O)c2cc3ccccc3n2CC1(C)C(=O)NC1CCCCC1 (stereo not given) | -0.048% | 3.83% | 7.7% | 4.69% | 1.79%
C=C1CCC2C(C)(C)C(O)CCC2(C)C1CCC(C)CCO (stereo not given) | -15% | -7.93% | 0.29% | -24.5% | -20.7%
Cc1ccccc1-c1cnc2[nH]cc(CC(=O)N3CCOCC3)c2c1 | -14.7% | -8.59% | -6.3% | -17.5% | -17.3%
CCOC(=O)CCN(C(=O)c1ccc2c(c1)nc(CNc1ccc(C(=N)N)cc1)n2C)c1ccccn1 | -3.95% | -0.937% | -91.2% | -25% | -11.7%
O=C(O)c1ccc(N2C(=O)/C(=C/c3ccc(-c4ccc([N+](=O)[O-])cc4)o3)C=C2c2ccccc2)cc1 | -40.2% | -24.2% | -14.1% | -29.6% | -4.76%
CC1(C(=O)NC2CCCCC2)Cn2c(cc3sccc32)C(=O)N1CC1CCCO1 (stereo not given) | -2.31% | 4.5% | 1.96% | -1.88% | 2.62%
CNC(=O)N1CCC(C2CCN(C(=O)c3cnn(C)c3)C2)CC1 (stereo not given) | -1.83% | -0.717% | 1.55% | -7.07% | -13.2%
